Data taken from PubChem BioAssay AID540267 (National Center for Advancing Translational Sciences (NCATS), 2011).
The whole screen tested about 340,000 compounds, of which about 530 (0.16%) were called active. The inconclusive results got no clear call from the source; some entries with a clear call stand among them for comparison. No stated cut-off is given here; in the data, active means activity change below about -80%; inconclusive means between about -30% and that limit; inactive means weaker than that.

Experiment: Small Molecules that selectively kill Giardia lamblia: qHTS;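 further: parasites exposed to compound for two days anaerobically before the ATP read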
Settings: Giardia lamblia trophozoite viability; at 7.66 µM; active compounds read low
In short: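 Media and compound were dispensed first, then trophozoites at 100 cells/well; plates sat 48 hrs at 37 deg C without oxygen before ATP luminescence reagent was added and read after 15-30 min at room temperature.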
On the % scale 0 is the no-effect control and ±100 the full control effect.

Compound | activity change
CCOC(=O)c1c(NC(=S)Nc2ccc(F)cc2)sc2c1CCC2 | inactive: -21.8%
COc1ccccc1NC(=O)c1sc2nc(-c3ccco3)ccc2c1N | inactive: -2.61%
CN(C)C(=O)c1ccc(NC(=O)CSc2nc3ccccc3[nH]2)cc1 | inconclusive: -31.5% [inhibitor]
CC(C)c1c(C(=O)N/N=C/c2cccc(OCc3ccccc3)c2)nnn1-c1nonc1N | inactive: -0.282%
COc1ccc(Cl)cc1C(=O)Nc1ccc2c(c1)OCCO2 | inconclusive: -30.7% [inhibitor]
COC(=O)C1=C(C)NC(=O)NC1c1ccc(N2CCC(c3ccccc3)=N2)cc1 (stereo unspecified) | inactive: 16.7%
O=C(NCC1CCCN(Cc2cccc(F)c2)C1)c1cccc2ccccc12 (stereo unspecified) | inconclusive: -33.3% [inhibitor]
CC(C)(C)NC(=O)NC(=O)COC(=O)Cn1c(C(F)(F)F)nc2ccccc21 | inconclusive: -32.8% [inhibitor]
O=C(CSc1ccc2nnc(-c3cccc(F)c3)n2n1)N1CCCc2ccccc21 | inactive: 12.6%
CC1CC1C(=O)Nc1ccc(S(=O)(=O)N2CCCCC2)cc1 (stereo unspecified) | inactive: 5.81%
O=[N+]([O-])c1ccc(Oc2ccc(F)cc2)c2ccncc12 | inconclusive: -40.8% [inhibitor]
CCc1[nH]c(C(=O)O)c(C)c1C(=O)OC | inconclusive: -36.5% [inhibitor]
Cc1ccc(C(=O)Nc2cc3ccccc3oc2=O)cc1 | inconclusive: -44.8% [inhibitor]
CCOc1ccc(-c2c(C(=O)N/N=C/c3ccc(C)s3)nnn2-c2nonc2N)cc1 | inconclusive: -46.7% [inhibitor]
Cn1cccc1C1CCCN1CC(=O)Nc1ccc(F)c(F)c1F (stereo unspecified) | inconclusive: -56.1% [inhibitor]
O=C1N=C(N2CCCC2)S/C1=C\c1cccc(Br)c1 | inconclusive: -39.6% [inhibitor]
Cc1ccccc1NC(=O)CN(C)S(=O)(=O)c1ccc2c(c1)n(C)c(=O)c(=O)n2C | inconclusive: -33.5% [inhibitor]
Cc1ccc(NC(=O)CC(=O)Nc2ccc(C)c(C)c2)cc1C | inactive: 12.1%
Cn1c(C(C#N)C(=O)Cc2cccc3ccccc23)nc2ccccc21 (stereo unspecified) | inactive: 10.8%
C=CCCCN(Cc1ccccc1)S(=O)(=O)c1ccccc1Br | inconclusive: -31.4% [inhibitor]
Cn1c(=O)oc2cc(S(=O)(=O)N3CCC(N4CCCCC4)CC3)ccc21 | inconclusive: -31.7% [inhibitor]
Cc1nnc(Sc2cc(C(=O)NC3CC3)c3ccccc3n2)s1 | inconclusive: -34.7% [inhibitor]
O=C(C[N+]1(CC#Cc2ccccc2)CCCCC1)c1ccccc1 | inconclusive: -30.7% [inhibitor]
Oc1ccc(Cn2ccnc2)c2cccnc12 | inactive: -1.03%
NC(=S)NC1CC2C=CC1C2 (stereo unspecified) | inactive: -19.9%
COc1ccc(C(=O)NCCN2CCOCC2)cc1S(=O)(=O)Nc1ccc(C)cc1 | inconclusive: -38.1% [inhibitor]

Compound | activity change
O=C(NCc1ccccc1)c1onc(CSc2ccccc2)c1C(=O)NCC1CC1 | inactive: -26%
COC(=O)c1ccc(/C=N/NC(=O)CNc2cccc(C)c2)cc1 | inconclusive: -31% [inhibitor]
CNCc1cc(Br)c(OCC(=O)Nc2ccccc2OC)c(OC)c1 | inactive: 3.75%
COc1cccc(C2c3[nH]c4ccccc4c3C[C@H]3C(=O)N(CCCOC(C)C)CC(=O)N23)c1 (stereo partly specified) | inactive: -0.306%
CC(=O)Oc1ccccc1/C=C/c1nc2ccccc2c(=O)o1 | inconclusive: -43.3% [inhibitor]
CCc1cccc2c(C(=O)COC(=O)c3cccc(S(=O)(=O)N(C)C4CCCCC4)c3)c[nH]c12 | inconclusive: -34.8% [inhibitor]
N#C/C(=C\c1cccs1)C(=O)c1ccccc1Cl | inactive: 15.6%
c1ccc(CNc2ncnc3c2ncn3C2CCCCO2)cc1 (stereo unspecified) | inactive: -13.5%
O=[N+]([O-])c1ccc(Cl)c(S(=O)(=O)Nc2ccc(-c3ccc(N4CCCC4)nn3)cc2)c1 | inactive: -3.26%
CC/C(=C\C(=O)c1ccncc1)Nc1ccc(Br)cc1 | inactive: 16.1%
Cc1ccc(-c2cc3c(nn2)-c2ccccc2C3=O)cc1 | active: -96.7%
CC(=O)Nc1ccc(N2C(=O)c3ccc(C(=O)Nc4nnc(SCc5ccc(F)cc5)s4)cc3C2=O)cc1 | inconclusive: -37.3% [inhibitor]
O=C(Nc1ccc2oc(-c3ccccc3F)nc2c1)c1ccccc1F | inconclusive: -33.1% [inhibitor]
COc1cc(C(=O)Nc2ccc(S(=O)(=O)Nc3ncccn3)cc2)c([N+](=O)[O-])cc1OC | inconclusive: -36.8% [inhibitor]
O=C(NN1C(=O)c2ccccc2NC1c1ccc([N+](=O)[O-])o1)c1ccccc1 (stereo unspecified) | active: -84.8%
COC(=O)c1ccccc1S(=O)(=O)N1CCC(C(=O)Nc2ccc(N3CCOCC3)cc2)CC1 | inactive: -1.66%
CCn1c(CNC(=O)c2ccc3c(c2)OCO3)nnc1SCC(=O)Nc1ccccc1F | inactive: -8.88%
O=c1c2c(-c3ccccc3)csc2ncn1/N=C/c1cn(-c2ccccc2)nc1-c1cccs1 | inconclusive: -36% [inhibitor]
COc1ccc(N/C=C/C(=O)C(F)(F)F)cc1 | inconclusive: -33.1% [inhibitor]
Cc1ccc(/C=C/C(=O)NCC2COc3ccccc3O2)o1 (stereo unspecified) | inconclusive: -53% [inhibitor]
CNC(=S)N1CCN(C(=O)C2CCCO2)CC1 (stereo unspecified) | inconclusive: -40.5% [inhibitor]
COc1ccc(Nc2c(-c3ccc(C)cc3)nc3cnccn23)cc1 | inconclusive: -30.8% [inhibitor]
CCOC(=O)c1cnc(-c2ccccc2)[nH]c1=O | inactive: -2.65%
COCCN1C(=O)N[C@@H](CCc2ccccc2)[C@H](C(=O)OC)[C@H]1C | inconclusive: -31.1% [inhibitor]
Cc1cc(/C=C2/C(=N)N3C(=NC2=O)SN=C3S(C)(=O)=O)c(C)n1-c1ccccc1F | inconclusive: -51.4% [inhibitor]
